This passage reports survival results from PubChem BioAssay AID463173 (ICCB-Longwood Screening Facility, Harvard Medical School, 2010).

Among all 52,000 compounds or so, about 1,700 (3.3%) were called active. Rule as the data show it: active = survival mostly below about 52% (no sharp cut-off); inactive = mostly above about 56%. This is one part of the list.

For this assay, the system named is Wild type. The experiment in a line: S. aureus survival, RN4220 and DeltatarO strains – OD600, teichoic acid synthesis inhibitors, primary screen (AID 463173). The conditions noted are these: S. aureus RN4220 wild type/DeltatarO growth, OD600, 18 h, stronger effect = lower value, screened at 18.75 µg/mL (by protocol).
For `O=C(CN1C=NS(=O)(=O)c2ccccc21)Nc1ccc(Br)cc1`, the survival was inactive: 73%.

`Cc1ccccc1CNC(=O)CCCn1ncn2c(cc3occc32)c1=O`: the survival was inactive: 84%.

Take `Cc1cccc(-n2nnc(-c3nc(-c4cccs4)no3)c2N)c1C`: the survival was inactive: 91%.

Consider `O=C1C2=C(Nc3ccccc3SC2c2ccc(C(F)(F)F)cc2)c2ccccc21` (configuration not stated), for which the survival was inactive: 36%.

Regarding `COCCNC(=O)c1ccc2c(c1)NC(=O)C(CS(=O)(=O)Cc1ccc(F)cc1Cl)N2` (configuration not stated), the survival was inactive: 134%.

Regarding `COc1ccc(NC(=O)c2c(NC(=O)c3cccc(C)c3)sc3c2CCC3)cc1`, the survival is inactive: 74%.

On to `COc1cccc(CNC(=O)c2ccc3oc(=O)n(Cc4ccccc4)c3c2)c1`, for which the survival is active: -3%.

`Cc1nn(-c2cc(N3CCOCC3)ccc2N)c(=O)c2ccccc12`: the survival was inactive: 100%.

For `COc1ccccc1Nc1ncc2c(n1)CCN(CC(C)C)C2`, the survival is inactive: 71%.

As for `CCN1C(=O)c2ccccc2S(=O)c2ccc(C(=O)N3CCN(c4ccc(F)cc4)CC3)cc21` (configuration not stated), the survival was inactive: 86%.

As to `Cc1cccc(-c2nc(-c3ccc4c(c3)[nH]c(=O)n4C)no2)c1`, the survival was inactive: 72%.

In the case of `O=C(Nc1ccc2oc(-c3cccc4c(Br)cccc34)nc2c1)c1ccc(Br)cc1`, the survival was inactive: 91%.

Turning to `CC(=O)c1[nH]c(C)c(C(=O)NCc2ccc(Cl)cc2)c1C`, the survival is inactive: 105%.

Regarding `COc1cc(C)c(S(=O)(=O)Nc2cccc(-c3ccc(N4CCCC4)nn3)c2)cc1C`, the survival was inactive: 70%.

In the case of `Cc1cc(F)ccc1NC(=O)CCS(=O)(=O)c1cccc2nsnc12`, the survival was inactive: 61%.

With `Cc1ccccc1CN1C(=O)c2ccccc2Sc2ccc(C(=O)N3CCOCC3)cc21`, the survival was inactive: 88%.

As to `COc1ccccc1-c1c(C(F)(F)F)oc2c(CN3CCCCC3C)c(O)ccc2c1=O` (configuration not stated), the survival was inactive: 71%.

As for `Cc1cccc2cc(C(c3nnnn3CCc3ccccc3)N3CCN(c4nc5ccccc5s4)CC3)c(=O)[nH]c12` (configuration not stated), the survival was inactive: 108%.

For `O=C(NC1CCCC1)c1ccc2c(c1)OCO2`, the survival is inactive: 107%.

`Cc1cccc(NC(=O)CSc2nc3c(oc4ccccc43)c(=O)n2-c2ccccc2)c1C`: the survival was inactive: 86%.

Take `CCCN(CCC)CCCNC(=O)c1cc2c(-c3ccc(Cl)cc3)nn(C)c2s1`: the survival was inactive: 95%.

On to `CCc1cc(=O)oc2cc(C)c3c(-c4ccc(F)cc4)coc3c12`, for which the survival is inactive: 59%.

For the compound `Cc1ccc(S(=O)(=O)N2CCC(C(=O)Nc3cc(C)ccc3C)CC2)cc1`, the survival is inactive: 95%.

Take `COc1ccc(Cn2c(=O)c3oc4ccccc4c3n(Cc3ccccc3)c2=O)cc1`: the survival was inactive: 85%.

As to `O=S(=O)(NCc1ccco1)c1ccc(-c2ccc(S(=O)(=O)NCc3ccco3)cc2)cc1`, the survival is inactive: 95%.

For `COc1cc(-c2cc3n(C)c(C)c(CCC(=O)Nc4ccc(F)cc4)c(=O)n3n2)cc(OC)c1OC`, the survival was inactive: 79%.

In the case of `O=C(CSc1c2c(nc3ccccc13)CCC2)Nc1ccc(F)cc1F`, the survival was inactive: 62%.

For the compound `Cc1ccc(OCCSc2nc(-c3cccs3)nc3cc(=O)[nH]n23)cc1Cl`, the survival was inactive: 121%.

For the compound `CCOC(=O)c1[nH]c(C)c(CCC(=O)NCc2cccc(Cl)c2)c1C`, the survival is inactive: 71%.

Consider `COC(=O)c1ccc([C@@H]2Nc3c(cccc3C(F)(F)F)[C@@H]3C=CC[C@@H]32)cc1`, for which the survival is active: 3%.

With `COc1ccccc1CCNC(=O)Cc1c(C)c2c(O)cc(C)cc2oc1=O`, the survival was inactive: 69%.

Consider `COc1ccc(NC(=O)CCN2CCOCC2)cc1`, for which the survival was inactive: 111%.

Turning to `O=C1OC(Nc2ccccn2)c2ccccc21` (configuration not stated), the survival is inactive: 103%.

Take `COC(=O)c1c(NC(=O)C2c3ccccc3Oc3ccccc32)sc2c1CCC(C)C2` (configuration not stated): the survival is inactive: 70%.

Take `Nc1nonc1-c1nc2ccccc2n1Cc1ccc(Br)cc1`: the survival is inactive: 93%.

As for `Nc1nc2nc(-c3ccc(Cl)cc3)cc(C(F)(F)F)n2n1`, the survival was inactive: 144%.

In the case of `CC(=O)N1c2ccccc2C(=O)C1N1CCN(c2cccc(C)c2C)CC1` (configuration not stated), the survival was inactive: 99%.

`Cc1ccc(NC(=O)CSc2nc3c(c(=O)[nH]2)CN(Cc2ccccc2)CC3)cc1Cl`: the survival was inactive: 72%.

For `CC(C)(Oc1ccc(Cl)cc1)C(=O)Nc1cccc(-c2cn3cccnc3n2)c1`, the survival is inactive: 82%.

On to `CC(CNC(=O)c1sc2ncccc2c1-n1cccc1)c1ccccc1` (configuration not stated), for which the survival was inactive: 81%.

Consider `Cc1ccc(NC(=O)C2=CC(c3cccs3)=NS(=O)(=O)N2C)cc1`, for which the survival is inactive: 91%.

For `CC1(C)CC(=O)c2cc(C(=O)Nc3ccc(Cl)cc3)c(=O)[nH]c2C1`, the survival was inactive: 71%.

In the case of `Cn1c(=O)c2c(ncn2C/C=C/c2ccccc2)n(C)c1=O`, the survival was inactive: 103%.

Take `Cc1nc2scc(C)n2c(=O)c1S(=O)(=O)Nc1ccc(N2CCN(C(=O)C(C)C)CC2)cc1`: the survival was inactive: 133%.

Regarding `O=C(CC(c1cccs1)N1Cc2ccccc2C1=O)Nc1ccccc1F` (configuration not stated), the survival was inactive: 73%.

In the case of `CCOC(=O)C1CCN(C(=O)c2ccc(C)cc2)CC1`, the survival is inactive: 93%.

For `COC(=O)c1cc2occc2n1Cc1ccc(F)cc1Cl`, the survival was inactive: 19%.

In the case of `COc1ccc(-c2nnc(SCC#N)o2)cc1`, the survival was inactive: 106%.

With `Cc1ccc(NC(=O)CN2C(=O)CSc3ccc(S(=O)(=O)N(C)C)cc32)cc1C`, the survival was inactive: 66%.

Take `Cc1ccc(CSC2=Nc3ccccc3C3=NC(CCC(=O)NCCc4ccccc4)C(=O)N23)cc1` (configuration not stated): the survival was inactive: 66%.

`CN(C)CCNc1ccc(Cl)nn1`: the survival was inactive: 86%.

Consider `COc1ccc(-c2nc(S(=O)(=O)c3ccc(Cl)cc3)c(N3CCCCCC3)o2)cc1`, for which the survival is inactive: 64%.

With `Cc1ccc(C(=O)NCCSc2c(C)[nH]c3ccccc23)cc1C`, the survival was active: 19%.

Take `CCOc1cc(C2C(C(N)=O)=C(C)Nc3ncnn32)cc(Br)c1O` (configuration not stated): the survival was inactive: 71%.

As for `Cc1ccc(-c2nn(CCC(=O)Nc3ccc(Cl)c(Cl)c3)c(=O)c3ccccc23)cc1`, the survival is inactive: 78%.

As to `O=c1[nH]c2cc3c(cc2cc1CN(Cc1nnnn1CCc1ccccc1)C1CCCC1)OCCO3`, the survival is inactive: 102%.

Consider `COc1nc(NC23CC4CC(CC(C4)C2)C3)nc(OC)n1`, for which the survival was inactive: 126%.

As for `Cc1ccc(CCNC(=O)c2cc3c(s2)-c2ccccc2OC3)cc1`, the survival is inactive: 95%.

As for `O=C(NCC1CCCO1)NC12CC3CC(CC(C3)C1)C2` (configuration not stated), the survival is inactive: 107%.

Regarding `CC1CCCC(C)N1C(=O)CSc1nnc(-c2ccccc2)o1` (configuration not stated), the survival was inactive: 98%.

Turning to `CCCn1c(=N)c(C(=O)NC2CCCC2)cc2c(=O)n3cc(C)ccc3nc21`, the survival was inactive: 68%.

As for `CC1CCC(NC(=O)c2ccc3c(c2)N(Cc2ccccc2F)C(=O)c2ccccc2S3)CC1` (configuration not stated), the survival was inactive: 84%.

For `NC(=O)CSc1nc2ccc(NC(=O)COc3ccccc3)cc2s1`, the survival was inactive: 86%.

`Cc1nc2ccc(S(=O)(=O)NC(C(=O)NCc3ccccc3Cl)C(C)C)cc2s1` (configuration not stated): the survival is inactive: 85%.

Regarding `CC1CCN(S(=O)(=O)c2ccc3c(c2)N(CC(=O)NCc2ccccc2Cl)C(=O)CS3)CC1`, the survival is inactive: 73%.

As for `c1ccc(-c2cc(-c3ccccc3)c3c(n2)-c2ccccc2OC3)cc1`, the survival was inactive: 27%.

For the compound `COc1ccc(C2C(=O)N(C3CCC(C)CC3)CC(=O)N2Cc2ccc(C)cc2)cc1OC` (configuration not stated), the survival was inactive: 82%.

Consider `CSc1ncc(Cl)c(C(=O)NCc2ccc(C)cc2)n1`, for which the survival was inactive: 88%.

Consider `COC(=O)C(=NNc1cccc(Cl)c1)C(=O)OC`, for which the survival is inactive: 110%.

On to `O=S(=O)(Nc1ccc(F)c(C(F)(F)F)c1)c1ccc(N2CCCCS2(=O)=O)cc1`, for which the survival is inactive: 146%.

Regarding `O=C(Nc1cccc(C(F)(F)F)c1)C1CCCN(S(=O)(=O)c2cccc3nsnc23)C1` (configuration not stated), the survival is inactive: 85%.

As to `Cc1ccc2c(CC(=O)N3CCN(c4cccc(Cl)c4)CC3)coc2c1`, the survival was inactive: 82%.

Consider `CCCCNc1ccc(-c2nc(-c3ccccc3)no2)cc1[N+](=O)[O-]`, for which the survival is inactive: 83%.

Regarding `COc1ccc(OC)c(CNS(=O)(=O)c2c(C(=O)N3CCC(C)CC3)c(C)n(C)c2C)c1`, the survival is inactive: 47%.

As to `Cc1cc(C)cc(NC(=O)Cn2nnc(C(=O)NCCc3ccccc3)c2N)c1`, the survival is inactive: 93%.

`Cc1ccc(C#N)c(=O)[nH]1`: the survival was inactive: 127%.

Regarding `CN(C)c1cc[n+](CC(=O)N2CCCc3ccccc32)cc1`, the survival is inactive: 108%.

For `CCOc1ccc(C(=O)NCCc2sc(-c3ccc(C)cc3)nc2C)cc1`, the survival is active: -3%.

With `Cc1ccc(CCNC(=O)c2ccc(CS(=O)(=O)c3ccc(Br)cc3)o2)cc1`, the survival was inactive: 131%.

On to `CCOc1ccccc1NC(=O)CSc1c(C)cnc2c1c(=O)n(C)c(=O)n2C`, for which the survival is inactive: 67%.

Consider `COc1cc(Nc2nc(SCc3ccccc3F)nc3ccccc23)cc(OC)c1`, for which the survival is inactive: 128%.

Consider `Cc1ccc(C(c2nnnn2C2CCCC2)N2CCc3ccccc32)cc1` (configuration not stated), for which the survival is inactive: 118%.

As for `COc1ccc(CCNC(=O)c2cnc3sc(N4CCCCCC4)nn3c2=O)cc1OC`, the survival was inactive: 72%.

As for `CCOCCCNC(=O)C(c1ccc(OC)cc1)N(Cc1cccs1)C(=O)c1ccccc1O` (configuration not stated), the survival was inactive: 65%.

For `CC1=C(C(=O)Nc2c(C)cc(C)cc2C)C2(CCN(C(C)C)CC2)OC1=O`, the survival was inactive: 118%.

As for `CC1=C(C(=O)Nc2cccc(C)c2C)C2(CCCCC2)OC1=O`, the survival was inactive: 74%.

For `CC1(C)NC(=O)N(CC(O)CNC23CC4CC(CC(C4)C2)C3)C1=O` (configuration not stated), the survival was inactive: 108%.

On to `CC(C)NC(=O)CSc1nc2ccccc2nc1N1CCCCC1`, for which the survival was active: -28%.

`COc1ccccc1N1CCN(CCCNC(=O)c2cnn(-c3ccccc3Cl)c2C2CCN(C(=O)OC(C)(C)C)CC2)CC1`: the survival was inactive: 78%.

For the compound `Cc1ccc(Sc2ccc(N3CCCC(C(=O)Nc4ccc(Cl)cc4)C3)nn2)cc1` (configuration not stated), the survival is inactive: 71%.

`CCOc1ccc(C(=O)NC2CCN(C(=O)NCc3ccccc3)CC2)cc1`: the survival was inactive: 109%.

In the case of `Cc1ccc(N2CC(NC(=O)Cc3cccs3)CC2=O)cc1` (configuration not stated), the survival is active: 0%.
